According to patent US20120183570A1 (WASHINGTON STATE UNIVERSITY, published 2012):

Molecular target: T1, Human plasma fibronectin (Fn) (human, UniProt P02751-9 32-2240, limits assumed)
T1 construct: It is treated as the same molecule; also called full-length Fn
Experiment: ELISA on Fn-coated wells, anti-GST detection

B1: GST alone (other)
chain: not shown
notes: Negative control in the Fn ELISA
- binding result: no binding
